The target in the assay is Candida albicans actin (C. albicans, UniProt P14235 1-376). Briefly: fluorescence microscopy of a labelled protein on reconstituted actin networks.

Data on one molecule can be found in paper PMC8886540 (The EMBO Journal, 2022).

Chain of UniProt P14235 (P14235 whole entry): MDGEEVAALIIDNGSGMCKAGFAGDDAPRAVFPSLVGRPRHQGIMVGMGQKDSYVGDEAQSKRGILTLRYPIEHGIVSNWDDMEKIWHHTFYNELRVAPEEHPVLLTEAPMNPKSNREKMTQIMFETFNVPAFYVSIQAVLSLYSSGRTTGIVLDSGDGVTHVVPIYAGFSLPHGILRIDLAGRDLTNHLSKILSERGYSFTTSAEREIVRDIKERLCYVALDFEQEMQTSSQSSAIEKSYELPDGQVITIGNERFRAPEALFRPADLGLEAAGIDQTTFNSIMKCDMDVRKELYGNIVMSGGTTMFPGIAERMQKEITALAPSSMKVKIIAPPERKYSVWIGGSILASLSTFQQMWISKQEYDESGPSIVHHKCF

B1: Alexa-488-labeled S. cerevisiae ADF/cofilin D34C (natural protein)
chain: not shown
modifications: Alexa Fluor 488 C5-maleimide
Regarding B1, the binding result is listed as “binds”.
